US20260174822A1 (SHATTUCK LABS, published 2026)

Target: human GLP-1 receptor on engineered CHO-K1 cells (human, UniProt P43220 24-463)
Test: flow cytometry on CHO-K1 cells expressing human GLP-1 receptor (Receptor Occupancy: CHOK1-hGLP1R Cells); secondary agent specific to the chimeric protein

Row | EC50 (read off the curve) [ng/mL] | binding result | Binder
1 | ~10000 |  | GLP-1-RFRS-Fc-FGF21 (RGE) chimeric protein (Fc fusion, Tied by name only; Tested as purified protein and as culture supernatant of mmRNA-transfected CHO-K1 or HEK293 cells; also called GLP-1 (RSRF)-Fc-FGF21 (RGE)) HGEGTFTSDVSSYLEEQAAKEFIAWLVKGRGRFRS[letters of human IgG1 Fc with changes omitted]IEGRMDHPIPDSSPLLQFGGQVRQRYLYTDDAQQTEAHLEIREDGTVGGAADQSPESLLQLKALKPGVIQILGVKTSRFLCQRPDGALYGSLHFDPEACSFRERLLEDGYNVYQSEAHGLPLHLPGNKSPHRDPAPRGPARFLPLPGLPPALPEPPGILAPQPPDVGSSDPLSMVGGSQGRSPSYES
2 |  | binds | GLP-1-RFRS-Fc-FGF19 chimeric protein (Fc fusion, Tied by name only; Tested as purified protein and as culture supernatant of mmRNA-transfected CHO-K1 or HEK293 cells; also called GLP-1 (RSRF)-Fc-FGF19) HGEGTFTSDVSSYLEEQAAKEFIAWLVKGRGRFRS[letters of human IgG1 Fc with changes omitted]IEGRMDMRDSSPLVHYGWGDPIRLRHLYTSGPHGLSSCFLRIRADGVVDCARGQSAHSLLEIKAVALRTVAIKGVHSVRYLCMGADGKMQGLLQYSEEDCAFEEEIRPDGYNVYRSEKHRLPVSLSSAKQRQLYKNRGFLPLSHFLPMLPMVPEEPEDLRGHLESDMFSSPLETDSMDPFGLVTGLEAVRSPSFEK
